# Assay results published in ChEMBL document CHEMBL4888484, “Replenishing the malaria drug discovery pipeline: Screening and hit evaluation of the MMV Hit Generation Library 1 (HGL1) against asexual blood stage Plasmodium falciparum ,using a nano luciferase reporter read-out” (2022).
# Screen size: about 150,000 compounds; about 540 (0.36%) showed an effect of 50% or more. Some of the results follow.
# Tested on: Plasmodium falciparum
# Experiment: Primary screen in NF54 nanoGlo assay, in single point, at 2uM, 72h; a lower Z score goes with more inhibition
# Assay type: functional, Erythrocyte
# Conditions: timepoint 72 hour
Structure (SMILES),% Inhibition [%],Z score
CS(=O)(=O)Cc1nc(Cc2ccccc2)c(-c2ccccc2)s1,7,-1.19
COc1ccccc1OCC[C@H]1CCN(C(=O)COc2ccc(C)cc2)C1,-12,2.29
COc1ccc(-c2ccc3c(c2)C(=O)N2CCN(C(=O)c4cccc(F)c4)C[C@@H]2C(=O)N3)cc1,29,-3.24
Nc1ncc(C(=O)N2CCC[C@H](c3cccc(C(=O)O)c3)C2)c(-c2ccccc2)n1,6,-0.58
Cc1nccnc1N1CCC(F)(F)[C@@H](C)C1,-4,0.49
CCCn1nccc1NC(=O)c1ccoc1,2,-0.34
O=C(NCCc1noc2ccccc12)N[C@H]1CC[C@@H](C(=O)N2CCCCC2)C1,-3,0.46
Cc1cccc(CCCN[C@H]2CCC(=O)N(CC3CC3)CC2)c1,-5,0.77
Cc1nc2c(C(=O)N3CCN(c4cnccn4)CC3)ccnc2[nH]1,6,-1.24
Cc1ccc([C@@H](O)Cn2cc(C(=O)Nc3ccc(C)c(C)c3)nn2)cc1,-27,2.68
O=C(N[C@@H]1CC[C@H]2CCOc3ccccc3C(=O)N3CCN(CC4CCCCC4)C[C@H]3C(=O)NC[C@H]1O2)C1CCOCC1,2,-0.25
CC(C)(C)c1ccc(Cn2cnc3c2c(=O)n(CC2CC2)c(=O)n3-c2ccccc2)cc1,-9,1.29
Cc1ccsc1CN(C)Cc1cnc(N2CCOCC2)nc1,-8,0.92
O=C(Nc1cccc(/C=C/c2ccncc2)c1)c1ccco1,-8,0.99
Cc1ncnc(NCCc2n[nH]c(=O)n2C)c1C,-4,0.7
CCn1cc(S(=O)(=O)NCc2nc(COC)no2)c(C)n1,11,-1
CC[C@H]1C=CCN1C(=O)c1cc2cc(F)ccc2n1C,-4,0.71
CC(C)N1CCN(C(=O)CCc2nc3ccccc3[nH]2)CC1,-7,0.85
CCN(CC)S(=O)(=O)N[C@@H](C)c1ccc(S(C)(=O)=O)cc1,0,-0.04
CNC(=O)c1cc(N2CCCc3cc(OC)ccc3C2)ccn1,-4,0.84
O=C(CN1CCOC1=O)N1CC[C@H](Oc2ccccn2)C1,-7,1.35

Structure (SMILES),% Inhibition [%],Z score
COC1CCN(c2nnc([C@@H]3CC[C@H](C)O3)n2CC(C)C)CC1,5,-1.01
Cc1cc(C(=O)N2CCC(Nc3cccn4ncnc34)CC2)nn1C,-2,0.26
Cc1cccc(CNC(=O)c2n[nH]c3c2CN(C(=O)c2ccco2)CC3)c1,-13,1.65
C#CCCCC(=O)NCc1ccccc1,-6,0.67
O=C(NCCc1ccc(F)cc1)C(=O)Nc1ccc2c(c1)OCCO2,-11,1.67
Cc1ccc2cc(C(=O)N3CC(CO)OCC3C)ccc2n1 (stereo not drawn),-4,0.54
CCCc1noc(CCCC(=O)N2CCc3cccc(OC)c3CC2)n1,-11,1.26
C[C@@H](C(=O)NC1(c2ccccc2Cl)CCC1)n1cncn1,3,-0.4
CCOc1ccccc1NC(=O)CN1C(c2ccccc2)=C[C@@H](c2ccc(C)cc2)n2nnnc21,-4,0.36
CCN(CC)C(=O)Cc1cccc(OC)c1,-9,0.83
Cc1cc(C)n([C@@H](C)Cn2cc(Oc3ccccc3)c(=O)c(C(=O)O)c2)n1,1,-0.07
O=C(c1cccc(N2C(=O)CCS2(=O)=O)c1)N1CCCC1,-7,0.84
Cc1nccn1C1(C(=O)O)CCN(C(=O)c2ccc3c(c2)CCC3)CC1,-7,1.47
Cc1ccc(S(=O)(=O)c2c(C(=O)N3CCCC3)cnc3ccc(F)cc23)cc1,-23,2.23
O=S(=O)(CC1CCCCC1)NCc1nc(C(F)(F)F)cs1,-13,1.69
CCc1cc(CNS(=O)(=O)c2ccc(-c3onc(C)c3C)o2)on1,7,-0.9
O=C(NCc1c(F)cccc1F)c1cnc(-c2cccnc2)nc1,-9,1.6
CCn1cc2c(n1)c(=O)n(Cc1ccc(C)cc1)c(=O)n2CC(=O)Nc1ccc(F)cc1,-4,0.52
COC(=O)c1cc(CN)cc(NC(=O)C2CCCCC2)c1,-6,1.05
Cc1c(C(=O)CC(=O)c2cnn(C)c2C)cnn1C,2,-0.26
Cc1cc(C(=O)N[C@H]2C[C@@H](N3CCCC3)C2)ns1,3,-0.55

Structure (SMILES),% Inhibition [%],Z score
O=C(Nc1nc2c(s1)CCC2)C1CC1C(=O)Nc1nc2c(s1)CCC2 (stereo not drawn),-4,0.36
CC(C)c1ccc(C(O)=Cc2nc3c(=O)[nH]c(=O)n(C)c3nc2O)cc1,-1,0.05
Cc1n[nH]c([C@@H]2CN(Cc3noc(CC(C)C)n3)CCO2)n1,-12,1.2
COc1cc(NC(C)(C)CN2CCOCC2)ncn1,-11,0.99
CC(C)N(CC(N)=O)CC(=O)NCc1ccccc1,2,-0.22
CCc1nn(C)cc1C(=O)N[C@H]1CCS(=O)(=O)[C@H]1C,-16,3.02
Nc1n[nH]c(C(=O)NC2CCN(S(=O)(=O)c3ccccc3)CC2)n1,-1,0.25
CCN1CCC(NC(=O)[C@@H]2CCCCN2C(=O)OC(C)(C)C)CC1,-4,0.73
Cc1nc(CN2CCN(C(=O)c3ccc(=O)[nH]c3)CC2)sc1C,-2,0.34
O=C(NCCCN1CCOCC1)c1cn2c(n1)CC[C@H](c1cc(C(F)(F)F)cc(C(F)(F)F)c1)C2,-5,0.97
CS(=O)(=O)C1CCC(NC(=O)NC2CC3CCC2O3)CC1 (stereo not drawn),0,-0.01
O=C(c1ccc(F)cc1Cl)N1C2C=CCC1CC2 (stereo not drawn),-11,1.95
O=C(CCC(=O)c1ccc(Cl)cc1)NC1CCN(c2nc3cccnc3s2)CC1,-13,1.86
FC(F)c1ccc(CN2CCc3nccnc3C2)cc1,-9,1.36
Cc1cc(C)c(O)c(-c2cc(C(=O)Nc3sc4c(c3C#N)CCCC4)[nH]n2)c1,1,-0.17
O=S(=O)(CCC1CCCCC1)N1CC2CCC(O)CC2C1 (stereo not drawn),-16,1.81
COC(=O)C1=C(C(=O)OC)SC(=C2C(=S)C(C)(C)Nc3cc(C)c(C)cc32)S1,-7,0.82
Cn1nc(-c2cccc3cnccc23)nc1N1CCOCC1,-1,0.16
Cn1cc(CN[C@H]2[C@H](O)[C@H](O)C[C@@H]2c2cccnc2)c2ccccc21,28,-3.2
CCc1noc(CCNc2ncnc3[nH]ccc23)n1,-4,0.57
CC(C)Cn1c(Cn2cccn2)nc2cc(NC(=O)COc3ccccc3Cl)ccc21,10,-1.55

Structure (SMILES),% Inhibition [%],Z score
Cc1ccc(C(C)(C)CN(C)Cn2ncsc2=S)cc1,-16,2.47
COc1ccc(-c2cc(C)c(C)nc2O)cc1F,-3,0.47
CCOCCC1(CNC(=O)[C@@H]2CCC(=O)N2)CCCC1,2,-0.17
O=C(Nc1cccc2c1OCO2)N1CCC[C@H](c2nc(=O)[nH][nH]2)C1,7,-1.28
Cc1cc(C)n2ncc(-c3noc([C@H]4C[C@@H]4c4c[nH]cn4)n3)c2n1,-18,3.6
Cc1cnc(NC(=O)c2cc(O)ncn2)s1,-4,0.71
CCC(c1ccccc1)C1CCCN1CC(=O)NC1CC1 (stereo not drawn),-12,1.89
Cc1ccc(C)c(S(=O)(=O)NCC(=O)NC(C)(C)C)c1,-3,0.53
O=C(c1[nH]nc(C2CC2)c1Br)N(C1CCCCC1)C1CC1,-2,0.24
CCO[C@H]1CCOC2(CCN(C(=O)Nc3cccc(C)c3)CC2)C1,-5,0.87
Cc1ccc(C)c(CN2CC[C@H](N3CCN(Cc4nc(C)no4)C3=O)C2)c1,-3,0.63
COc1ccc(CNC(=O)CCS(=O)(=O)c2cc(-c3cc(C)no3)ccc2OC)cc1,-1,0.11
O=C(CC1CCCCC1)N1CCC[C@H]1C1CCNCC1,-1,0.19
O=C(NCCc1ccccc1)N[C@H]1C[C@H]2OCC[C@@H]12,-2,0.29
O=C(CN1CCC[C@H]1c1cccs1)Nc1cccc(S(=O)(=O)N2CCCC2)c1,1,-0.12
CCCc1cc(CN(C)C(=O)Nc2cccc(-c3csc(C)n3)c2)n[nH]1,-1,0.14
CC1(C)C[C@@H]1C(=O)NCC1CCN(S(N)(=O)=O)CC1,-14,1.53
Cc1ccc(NS(=O)(=O)c2cc(-c3ccno3)sc2C)c(Cl)c1,2,-0.23
Cc1cccn2c(=O)cc(CN(CCNS(C)(=O)=O)C3CC3)nc12,-7,1.05
CC(C)CCc1nc(CCn2ccc(=O)[nH]c2=O)n(CC(F)(F)F)n1,-3,0.46
O=C(NC1CC1)[C@@H]1CN(Cc2ccc(Cl)c(F)c2)C[C@H]1CO,-14,2.13
